This is an account of results in the GPR68 mutational scans of Howard et al. (2025).

B1: GPR68, Q15743 (parent)
chain: MGNITADNSSMSCTIDHTIHQTLAPVVYVTVLVVGFPANCLSLYFGYLQIKARNELGVYLCNLTVADLFYICSLPFWLQYVLQHDNWSHGDLSCQVCGILLYENIYISVGFLCCISVDRYLAVAHPFRFHQFRTLKAAVGVSVVIWAKELLTSIYFLMHEEVIEDENQHRVCFEHYPIQAWQRAINYYRFLVGFLFPICLLLASYQGILRAVRRSHGTQKSRKDQIQRLVLSTVVIFLACFLPYHVLLLVRSVWEASCDFAKGVFNAYHFSLLLTSFNCVADPVLYCFVSETTHRDLARLRGACLAFLTCSRTGRAREAYPLGAPEASGKSGAQGEEPELLTKLHPAFQTPNSPGSGGFPTGRLA

Series [1] covers variants of B1. Kind of series: cAMP reporter score (Enrich2 score, wild type = 0); higher = more signal; HEK293T, FACS bins.
The variants in series [2] derive from B1. Put plainly: surface expression score (Enrich2 score, wild type = 0); higher = more signal; HEK293T, FACS bins.

Scores with a large standard error are left out. Not listed are two conditions whose scores span a narrow range. Names with del lack the residues named; names with ins carry added residues between the positions named. For part of these data: The concentration of ogerin is not given here.

With F45Q, the cAMP reporter score is -1.05 in series [1] (pH 5.5); -0.208 in series [1] (pH 6); 0.075 in series [1] (pH 6, modulator: ogerin); -1.05 in series [1] (pH 6.5, modulator: ogerin). In series [2], the surface expression score was -0.867.
With L43_F45del, the cAMP reporter score in series [1] (pH 5.5) is -1.25; in series [1] (pH 6) it was -0.92; in series [1] (pH 6, modulator: ogerin) it was -0.603; in series [1] (pH 6.5, modulator: ogerin), -0.994. Moreover, the surface expression score in series [2] is -2.47.
L32_V33insG: the cAMP reporter score in series [1] (pH 5.5) is -1.65; in series [1] (pH 6) it was -0.504; in series [1] (pH 6, modulator: ogerin), -0.528; in series [1] (pH 6.5, modulator: ogerin), -1.01. Also, the surface expression score in series [2] is -2.04.
The like results for L41_L43del were, in that order, -1.52, -0.469, -1.91, -1.1 and -2.24.
Consider K51del, for which the cAMP reporter score in series [1] (pH 5.5) is -1.07; in series [1] (pH 6), -0.934; in series [1] (pH 6.5, modulator: ogerin) it was -2.32. The surface expression score in series [2] is -2.56.
N39_C40insGS: the cAMP reporter score in series [1] (pH 5.5) is -1.83; in series [1] (pH 6) it was -0.599; in series [1] (pH 6, modulator: ogerin) it was -1.66; in series [1] (pH 6.5, modulator: ogerin) it was -0.886.
Regarding L32V, the cAMP reporter score in series [1] (pH 5.5) was -0.477; in series [1] (pH 6), -0.097; in series [1] (pH 6, modulator: ogerin), -1.23; in series [1] (pH 6.5, modulator: ogerin), -0.892. Moreover, the surface expression score in series [2] is -2.02.
The like results for L32R were, in that order, -1.81, -0.955, -1.47, -1.28 and -2.66.
Consider L32P, for which the cAMP reporter score was -1.28 in series [1] (pH 5.5); -0.947 in series [1] (pH 6); -1.78 in series [1] (pH 6, modulator: ogerin); -1.41 in series [1] (pH 6.5, modulator: ogerin). The surface expression score in series [2] was -2.08.
Turning to L32S, the cAMP reporter score in series [1] (pH 5.5) was -0.159; in series [1] (pH 6.5, modulator: ogerin), -1.9. Further, in series [2], the surface expression score was -2.54.
On to L32W, for which the cAMP reporter score in series [1] (pH 5.5) was -1.67; in series [1] (pH 6), -1.33; in series [1] (pH 6, modulator: ogerin), -1.33; in series [1] (pH 6.5, modulator: ogerin), -1.43. In addition, the surface expression score in series [2] is -1.42.
For the variant L32T, the cAMP reporter score in series [1] (pH 5.5) was -0.589; in series [1] (pH 6) it was -0.882; in series [1] (pH 6, modulator: ogerin) it was -0.944; in series [1] (pH 6.5, modulator: ogerin), -0.485. In series [2], the surface expression score is -1.93.
As to L32Q, the cAMP reporter score in series [1] (pH 5.5) is -0.431; in series [1] (pH 6) it was -0.183; in series [1] (pH 6, modulator: ogerin) it was -0.666.
Take L32Y: the cAMP reporter score is -1.51 in series [1] (pH 5.5); -1.66 in series [1] (pH 6); -1.22 in series [1] (pH 6.5, modulator: ogerin).
Regarding L32N, the cAMP reporter score is -1.14 in series [1] (pH 5.5); -0.519 in series [1] (pH 6); -1.28 in series [1] (pH 6, modulator: ogerin); -0.361 in series [1] (pH 6.5, modulator: ogerin). Also, in series [2], the surface expression score is -1.81.
As for A52_R53insG, the cAMP reporter score in series [1] (pH 5.5) is -2.05; in series [1] (pH 6), -0.957; in series [1] (pH 6, modulator: ogerin) it was -0.718. In addition, the surface expression score in series [2] was -1.85.
As to A38V, the cAMP reporter score in series [1] (pH 5.5) was -0.066; in series [1] (pH 6) it was -0.427; in series [1] (pH 6, modulator: ogerin), -0.832; in series [1] (pH 6.5, modulator: ogerin), -0.925. In series [2], the surface expression score was 0.372.
The like results for A38G were, in that order, -1.21, -1.1, -0.734, -0.705 and -1.66.
A38D: the cAMP reporter score in series [1] (pH 5.5) is -1.56; in series [1] (pH 6), -0.704; in series [1] (pH 6, modulator: ogerin) it was -1.41; in series [1] (pH 6.5, modulator: ogerin), -0.428. In addition, the surface expression score in series [2] is -2.11.
For the variant A38R, the cAMP reporter score is -2.05 in series [1] (pH 5.5); -0.747 in series [1] (pH 6); -1.73 in series [1] (pH 6, modulator: ogerin); -1.01 in series [1] (pH 6.5, modulator: ogerin). In addition, the surface expression score in series [2] was -1.89.
The like results for A38P were, in that order, -0.415, 0.2, -0.52, -0.162 and -2.38.
With A38L, the cAMP reporter score was found to be 1.46 in series [1] (pH 5.5); 3.51 in series [1] (pH 6); 1.31 in series [1] (pH 6, modulator: ogerin); 3.32 in series [1] (pH 6.5, modulator: ogerin). In series [2], the surface expression score is 1.99.
For A38Y, the cAMP reporter score was -1.24 in series [1] (pH 5.5); -1.29 in series [1] (pH 6); -1.39 in series [1] (pH 6, modulator: ogerin); -0.53 in series [1] (pH 6.5, modulator: ogerin).
With A38N, the cAMP reporter score in series [1] (pH 5.5) is -1.42; in series [1] (pH 6), -0.971; in series [1] (pH 6, modulator: ogerin), -1.51; in series [1] (pH 6.5, modulator: ogerin), -1.2. The surface expression score in series [2] was -2.15.
The like results for A38S were, in that order, -1.14, -0.737, -1.32, -0.435 and -2.13.
A38K: the cAMP reporter score in series [1] (pH 5.5) is -0.624; in series [1] (pH 6, modulator: ogerin) it was -0.455; in series [1] (pH 6.5, modulator: ogerin), -0.393. Moreover, in series [2], the surface expression score was -3.22.
Take A38I: the cAMP reporter score was -0.137 in series [1] (pH 5.5); -0.802 in series [1] (pH 6); -0.423 in series [1] (pH 6, modulator: ogerin); -1.16 in series [1] (pH 6.5, modulator: ogerin). The surface expression score in series [2] is 0.569.
The like results for A38E were, in that order, -1.41, -1.51, -1.21, -1.35 and -1.96.
Turning to A38Q, in series [1] (pH 5.5), the cAMP reporter score is -0.793. Further, the surface expression score in series [2] is -2.97.
Consider A38T, for which the cAMP reporter score in series [1] (pH 5.5) was -0.808; in series [1] (pH 6), -0.375; in series [1] (pH 6, modulator: ogerin) it was -1.42; in series [1] (pH 6.5, modulator: ogerin) it was -1.13. Further, the surface expression score in series [2] is -1.15.
A38W: the cAMP reporter score is -1.57 in series [1] (pH 5.5); -2.11 in series [1] (pH 6, modulator: ogerin); -0.822 in series [1] (pH 6.5, modulator: ogerin). For the same variant, the surface expression score in series [2] is -0.591.
Consider A38H, for which the cAMP reporter score in series [1] (pH 5.5) is -1.17; in series [1] (pH 6), -0.833; in series [1] (pH 6, modulator: ogerin), -2.19; in series [1] (pH 6.5, modulator: ogerin), -1.88. Further, the surface expression score in series [2] was -2.38.
As for A38F, the cAMP reporter score in series [1] (pH 5.5) was -0.728; in series [1] (pH 6) it was 0.902; in series [1] (pH 6, modulator: ogerin), -0.326; in series [1] (pH 6.5, modulator: ogerin), 0.874. In series [2], the surface expression score was -0.111.
